According to PubChem BioAssay AID588855 (National Center for Advancing Translational Sciences (NCATS), 2011):
Several values for one entry are separate records, joined by “and”; a condition that tells them apart may be missing. Identical values can stand only once. Out of some 410,000 compounds screened, about 5,000 (1.2%) were called active. Inconclusive results, whose numbers are uncertain, are shown with a selection of clear calls. Calls follow the shape of the dose curve; as a rule, active = well fitted inhibition curve with a large enough effect; inconclusive = small, poorly fitted or top-dose-only effect; inactive = no such curve, though single readings can be large or run the other way. Potencies of inconclusive entries are doubtful fits and often do not repeat.

test: qHTS for Inhibitors of TGF-b; conditions: HepG2 CAGA-GFP TGF-b/SMAD3 reporter, GFP fluorescence, 18 h, TGF-beta stimulated, 500 pg/mL final; series mostly up to 46.1 µM; activity, negative = inhibition: at the top concentration; also: nearly all actives have a fitted effect of over 65% in size
Method in brief: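 Smad-responsive CAGA-GFP expression was quantified in HEPG2 cells exposed to compounds and 500 pg/mL final TGF-beta for 18 h at 37 degrees C; unstimulated wells defined full inhibition.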
% is scaled to controls: 0 for no effect and ±100 for the full control effect; potency is read from the fitted curve at half-maximal effect; tags tell the direction and shape of the fitted curve.

SMILES | activity, negative = inhibition | Potency
CC(=O)N1CCN(c2ccc(NC(=O)c3ccc(C(C)(C)C)cc3)cc2)CC1 | inactive: -19.8% | 
CCN(C(=O)COC(=O)c1cc(NS(=O)(=O)c2ccc(Cl)c([N+](=O)[O-])c2)ccc1O)C1CCCCC1 |  | inconclusive: 35.5 µM [inhibitor, single point]
CC(=O)N(CC(=O)Nc1sc(C)c(C)c1C(N)=O)Cc1ccccc1 | inactive: 3.63% | 
Cc1ncccc1C(=O)N1CCCC(CNC(=O)c2ccc(-c3ccccc3)cc2)C1 (stereo not given) |  | inconclusive: 6.31 µM [inhibitor, partial curve]
Cc1ccc(C2=NN(C(=O)CN3C(=O)c4ccccc4S3(=O)=O)C(c3ccco3)C2)cc1 (stereo not given) | inactive: 3.23% | 
O=C(CCCOc1ccccc1)N1CCCCC1 | inactive: 18.8% | 
Cc1ccc(-n2nc(C)c3c(C)cc(=O)n(CC(=O)Nc4cc(Cl)ccc4C)c32)cc1 | inactive: -7.98% | 
Nc1ccc2oc(-c3ccccc3Br)nc2c1 | inactive: -4.29% | 
COC(=O)c1cccc(C23CC4(C2)[C@H](CN(Cc2cccnc2)[C@@H]4c2ccccc2)C3c2ccccc2)c1 (stereo not given in full) |  | inconclusive: 12.6 µM [inhibitor, single point]
Cc1cc(Br)ccc1NC(=O)COC(=O)c1ccccc1OCC(N)=O | inactive: -9.82% | 
CCn1c(CSc2nnc(-c3ccncc3)n2C)nc2cc(C(=O)O)ccc21 |  | inconclusive: 35.5 µM [inhibitor, partial curve, poor fit]
COc1ccc(C2(c3ccc(OC)cc3)NC(=O)N(CC(=O)Nc3ccc(OC(F)F)cc3)C2=O)cc1 |  | inconclusive: 20 µM [inhibitor, partial curve, poor fit]
COc1ccccc1NC(=O)Nc1nc(C(N)C2CCCCC2)cs1 (stereo not given) |  | inconclusive: 22.4 µM [inhibitor, single point]
CCOc1ccc(OCCSc2nc3ccccc3[nH]2)cc1 |  | inconclusive: 35.5 µM [inhibitor, single point]
CC(C)C(=O)NC(=S)/C=C1/N(C)c2ccccc2C1(C)C |  | inconclusive: 35.5 µM [inhibitor, single point]
CCc1nnc(NC(=O)CSc2nc3c([nH]c4ccccc43)c(=O)n2-c2ccc(F)cc2)s1 | inactive: 0.175% | 
COc1ccccc1/C=C/c1onc(C)c1S(=O)(=O)N1CCC(C(=O)N2CCC(C)CC2)CC1 |  | inconclusive: 6.31 µM [inhibitor, single point]
Cc1ccc(NC(=O)c2cc(N3C(=O)C=CC3=O)ccc2N2CCOCC2)cc1Cl |  | inconclusive: 20 µM [inhibitor, partial curve, poor fit]
COc1cccc(OC)c1C(=O)Nc1ccccc1N1CCCCC1 |  | inconclusive: 22.4 µM [inhibitor, single point]
COc1cccc(CN2CC(C(=O)NCCN3CCOCC3)CCC2=O)c1 (stereo not given) | inactive: 0.998% | 
Cc1ccc(S(=O)(=O)N2CCCCC2)cc1NC(=O)C1CC1 | inactive: -3.97% | 
CCOC(=O)c1nc(Nc2ccc(Nc3ccccc3)cc2)c2ccccc2n1 | inactive: -26% | 

SMILES | activity, negative = inhibition | Potency
O=C(NCc1cccs1)C1CC(c2ccc(Cl)c(Cl)c2)=NO1 (stereo not given) |  | inconclusive: 7.08 µM [inhibitor, partial curve]
CCOC(=O)c1ccc(OC(=O)c2cn(-c3ccc(C)cc3)c(=O)c3ccccc23)cc1 | inactive: 21.7% | 
COC/C=C/C1=CC2=CC(=O)C(C)(OC(=O)c3cnc4ccccc4n3)C(=O)C2=CN1C1CC1 (stereo not given) |  | inconclusive: 25.1 µM [inhibitor, partial curve, poor fit]
Cc1nn(-c2ccccc2)c(-n2cccc2)c1C(=O)N1CCN(c2ccccc2)CC1 |  | inconclusive: 2.51 µM [inhibitor, single point]
COc1cc(-c2nnc3sc(C4CCCCC4)nn23)cc(OC)c1OC |  | inconclusive: 35.5 µM [inhibitor, single point]
CC(C)C1CC(CCNCc2ccc(N(C)C)cc2)(c2ccccc2)CCO1 (stereo not given) |  | inconclusive: 15.8 µM [inhibitor, single point]
COc1ccc(CNC(=O)c2cc3sccc3n2Cc2ccc(F)cc2)cc1 |  | inconclusive: 28.2 µM [inhibitor, single point]
COCCCN1C(=O)c2[nH]nc(-c3cc(C)ccc3O)c2C1c1ccc(F)cc1 (stereo not given) | inactive: -17.6% | 
COc1cc(-n2nc(C)c3c2OC(N)=C(C#N)C3c2ccccc2)c(Cl)c(Br)c1O (stereo not given) |  | inconclusive: 35.5 µM [inhibitor, single point]
COc1ccccc1NC(=O)Cn1cnc2ccc(S(=O)(=O)N3CCC(C)CC3)cc2c1=O |  | inconclusive: 17.8 µM [inhibitor, partial curve, poor fit]
CCOC(=O)c1c(C)c(C(=O)Nc2ccc(F)cc2)c(C)n1C |  | inconclusive: 35.5 µM [inhibitor, partial curve, poor fit]
COc1ccc(-c2ccc(OC)c([C@H]3[C@@H]4C=CCC[C@@]4(C)C(=O)N3Cc3ccccc3)c2)cc1OC |  | inconclusive: 35.5 µM [inhibitor, single point]
Cc1ccc(C)c(SCC(=O)Nc2cccc(S(=O)(=O)N3CCOCC3)c2)c1 |  | inconclusive: 15.8 µM [inhibitor, partial curve, poor fit]
CN1CCc2cccc3c2[C@H]1Cc1ccc(O)c(O)c1-3 |  | inconclusive: 31.6 µM [inhibitor, partial curve, poor fit] and inconclusive: 35.5 µM [inhibitor, single point] and inconclusive: 10 µM [inhibitor, single point]
CCCCCCC(O)(c1ccc(OC)cc1)C(CN1CCOCC1)c1ccccc1 (stereo not given) |  | inconclusive: 31.6 µM [inhibitor, single point]
CC(C)Oc1ccccc1C1CC(=O)Nc2cc3c(cc21)OCO3 (stereo not given) |  | inconclusive: 10 µM [inhibitor, partial curve, poor fit]
CCC(C)NC(=O)C1c2ccccc2C(=O)N1Cc1ccc(F)cc1 (stereo not given) | inactive: 0.109% | 
Cc1c(C(=O)Nc2nc(-c3ccccn3)cs2)oc2ccccc12 |  | inconclusive: 35.5 µM [inhibitor, single point]
O=c1cc2nc(-c3ccccc3)nc(SCCOc3ccc(Cl)cc3)n2[nH]1 |  | inconclusive: 3.55 µM [inhibitor, partial curve, poor fit]
Oc1c(/C=N/Nc2cccc3cccnc23)ccc2ccccc12 |  | inconclusive: 5.62 µM [inhibitor, single point]
COc1ccc(C(=O)Nc2ccc3oc(-c4cc(Cl)ccc4Cl)nc3c2)cc1Br | inactive: -27.6% | 
CCc1ccc(NC(=O)CC2C(=O)N(c3ccc(OC)cc3)C(=O)N2Cc2cccs2)cc1 (stereo not given) | inactive: -8.47% | 

SMILES | activity, negative = inhibition | Potency
Nc1ccc2nc(SCC(=O)N3CCOCC3)sc2c1 | inactive: 12.3% | 
COc1cc(OC)c(N(C)C(=O)CSc2c3c(nc4ccc(Cl)cc24)CCCC3)cc1Cl |  | inconclusive: 14.1 µM [inhibitor, partial curve, poor fit]
CCC(=O)N1CCCc2cc(S(=O)(=O)N3CCC(C(=O)Nc4cccc(Cl)c4)CC3)ccc21 |  | inconclusive: 7.08 µM [inhibitor, partial curve, poor fit]
CC(=O)N1CCc2cc(S(=O)(=O)NC(Cc3ccccc3)C(=O)Nc3ccc(C)cc3C)ccc21 (stereo not given) |  | inconclusive: 14.1 µM [inhibitor, single point]
COc1ccc(C(=O)Nc2cccc(-c3ccc(N4CCOCC4)nn3)c2)cc1OC |  | inconclusive: 3.16 µM [inhibitor, single point]
Cc1ccc(C)c(Cn2c(=O)n(-c3ccc(F)cc3)c(=O)c3sc4ccccc4c32)c1 | inactive: -11.4% | 
COC(=O)c1ccc(NC(=S)NC2CC3CCC2C3)cc1 (stereo not given) |  | inconclusive: 0.891 µM [inhibitor, full curve]
Cc1cccc(C)c1N(CC(=O)NCc1ccco1)C(=O)CNS(=O)(=O)c1ccc(F)cc1 |  | inconclusive: 35.5 µM [inhibitor, single point]
O=C(NC(Cc1ccccc1)c1ccc2c(c1)OCCCO2)c1ccccc1F (stereo not given) |  | inconclusive: 4.47 µM [inhibitor, full curve, poor fit]
Cc1ccc(-c2nnc3ccc(SCC(N)=O)nn23)cc1 | inactive: 0.378% | 
CN(c1cccc(F)c1)c1cc2c(c3c1ccn3C)C1CCC2O1 (stereo not given) |  | inconclusive: 7.08 µM [inhibitor, full curve, poor fit]
CC(C)C(=O)N1CCN(c2cc(N3CCN(C)CC3)c(F)cc2[N+](=O)[O-])CC1 | inactive: -17.9% | 
Cc1ccccc1Nc1c(-c2ccncc2)nc2ccc(Br)cn12 |  | inconclusive: 6.31 µM [inhibitor, full curve, poor fit]
O=C(N/N=C/c1ccc(OC(F)F)cc1OC(F)F)NC1CCCCC1 |  | inconclusive: 35.5 µM [inhibitor, partial curve, poor fit]
COc1cccc(-c2nc(SCC(=O)NCC3CCCO3)c(-c3ccc(Cl)cc3)[nH]2)c1 (stereo not given) |  | inconclusive: 12.6 µM [inhibitor, partial curve, poor fit]
CCOc1ccc(C2=Nn3c(nnc3-c3ccccc3OC)SC2)cc1 |  | active: 10 µM
O=C(CSc1nnc2ccc(-c3ccccn3)nn12)Nc1ccccc1F | inactive: -11.5% | 
CCOc1ccc2[nH]c(SCC(=O)OC)c([N+](=O)[O-])c2c1 | inactive: 10.5% | 
Cn1c(=O)c(-c2cc(Br)ccc2N)nc2ccccc21 |  | inconclusive: 35.5 µM [inhibitor, single point]
CC1=C(C(=O)N(C(C)C)C(C)C)CC(CC(=O)NC2CCCCC2)C(=O)N1Cc1ccc(C(C)(C)C)cc1 (stereo not given) |  | inconclusive: 17.8 µM [inhibitor, single point]
COc1ccccc1N=Nc1nc(-c2ccccc2)c(-c2ccccc2)[nH]1 |  | inconclusive: 35.5 µM [inhibitor, single point]
